Experimental data reported in a collection of fitness landscapes (doi:10.1016/j.celrep.2020.107928).
Over roughly 81,000 sequences, “one-hybrid fitness for binding NBS DNA” has its median near -0.1; the highest 2% begin near 0.36. Some of the results follow.

B1: Caulobacter ParB omega fusion; a variant is named by its letters at X, in order, B8GW30 (parent)
chain: MESVVVGEPGMSEGRRGLGRGLSALLGEVDAAPAQAPGEQLGGSREAPIEILQRNPDQPRRTFREEDLEDLSNSIREKGVLQPILVRPSPDTAGEYQIVAGERAWRAAQRAGLKTVPIMVRELDDLAVLEIGIIENVQRADLNVLEEALSYKVLMEKFERTQENIAQTIGKSXSHVANXMRLLXLPDEVQSYLVSGELTAXHARAIAAAADPVALAKQIIEGGLSVRETEALARKAPNLSAGKSKGGRPPRVKDTDTQALESDLSSVLGLDVSIDHRGSTGTLTITYATLEQLDDLCNRLTRGI

Variants of: B1
Assay: one-hybrid fitness for binding NBS DNA (the Noc-binding site; scaled: cognate 1, non-cognate 0); higher = stronger binding
Conditions: with NBS DNA site
How it was run: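 Caulobacter ParB libraries with four specificity codons randomised were screened by bacterial one-hybrid selection in the E. coli USO strain, using a HIS3 reporter whose site lies 19 bp from the promoter. Selection ran for 48 hours at 37°C on M9 lacking histidine, with 0.1 mM IPTG and 5 mM 3-AT. Plasmids were Illumina-sequenced before and after selection, three replicate libraries were pooled, and variants with under 10 reads were dropped. Fitness is the log change in each variant's read ratio to wild type, rescaled against the cognate and non-cognate sites.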

Row | Variant | one-hybrid fitness for binding NBS DNA
1 | RSMA | ≤ 0.2
2 | LGTV | ≤ 0.2
3 | RRMM | 0.221
4 | MVTV | ≤ 0.2
5 | IVDC | ≤ 0.2
6 | MPYE | ≤ 0.2
7 | WIAG | ≤ 0.2
8 | PDIG | ≤ 0.2
9 | MPQW | ≤ 0.2
10 | LSCS | ≤ 0.2
11 | MRQC | ≤ 0.2
12 | LTTV | ≤ 0.2
13 | ATSC | ≤ 0.2
14 | KINY | ≤ 0.2
15 | GSCT | ≤ 0.2
16 | IQCG | ≤ 0.2
17 | PIKR | ≤ 0.2
18 | RSHL | ≤ 0.2
19 | GYWF | ≤ 0.2
20 | TLSM | ≤ 0.2
21 | QGQV | ≤ 0.2
22 | ANWD | ≤ 0.2
23 | QKLI | ≤ 0.2
24 | GTPA | ≤ 0.2
25 | EPKK | ≤ 0.2

Row | Variant | one-hybrid fitness for binding NBS DNA
26 | HTVL | ≤ 0.2
27 | WNSR | ≤ 0.2
28 | VPFC | ≤ 0.2
29 | QLPM | ≤ 0.2
30 | HPCH | ≤ 0.2
31 | WQMR | ≤ 0.2
32 | ESYT | ≤ 0.2
33 | KCPI | ≤ 0.2
34 | ARGF | ≤ 0.2
35 | LDKT | ≤ 0.2
36 | LHIT | ≤ 0.2
37 | MVTL | ≤ 0.2
38 | SPIT | ≤ 0.2
39 | AHGY | ≤ 0.2
40 | NNSE | ≤ 0.2
41 | VTMF | ≤ 0.2
42 | LHME | ≤ 0.2
43 | FDSR | ≤ 0.2
44 | LVRG | ≤ 0.2
45 | YTRV | ≤ 0.2
46 | MGCS | ≤ 0.2
47 | YARI | ≤ 0.2
48 | IDNL | ≤ 0.2
49 | STAF | ≤ 0.2
50 | DNIT | ≤ 0.2

Row | Variant | one-hybrid fitness for binding NBS DNA
51 | QRYG | 0.312
52 | HFVY | ≤ 0.2
53 | QPRM | ≤ 0.2
54 | RGYT | ≤ 0.2
55 | GYGF | ≤ 0.2
56 | GGSS | ≤ 0.2
57 | RPPK | ≤ 0.2
58 | SYTG | ≤ 0.2
59 | HSWL | ≤ 0.2
60 | KTAQ | ≤ 0.2
61 | YLRW | ≤ 0.2
62 | CLWS | ≤ 0.2
63 | LSGT | ≤ 0.2
64 | QSRL | 0.228
65 | QVNQ | ≤ 0.2
66 | SLCL | ≤ 0.2
67 | EQNT | ≤ 0.2
68 | VLVS | ≤ 0.2
69 | PAAM | ≤ 0.2
70 | MYST | ≤ 0.2
71 | KLRS | ≤ 0.2
72 | QWLP | ≤ 0.2
73 | TNMD | ≤ 0.2
74 | RREE | ≤ 0.2
75 | REPQ | ≤ 0.2

Row | Variant | one-hybrid fitness for binding NBS DNA
76 | HVND | ≤ 0.2
77 | CCFR | ≤ 0.2
78 | EDNV | ≤ 0.2
79 | IKDS | ≤ 0.2
80 | NLYC | ≤ 0.2
81 | IVCC | ≤ 0.2
82 | RNID | ≤ 0.2
83 | QSQF | ≤ 0.2
84 | DITT | ≤ 0.2
85 | SYRS | ≤ 0.2
86 | ANIP | ≤ 0.2
87 | NGIG | ≤ 0.2
88 | AHPP | ≤ 0.2
89 | TRQN | ≤ 0.2
90 | YQPS | ≤ 0.2
91 | GHKT | ≤ 0.2
92 | RAIQ | ≤ 0.2
93 | DAQE | ≤ 0.2
94 | ITMS | ≤ 0.2
95 | EFPR | ≤ 0.2
96 | HEHQ | ≤ 0.2
97 | SYPN | ≤ 0.2
98 | PESI | ≤ 0.2
99 | VCTN | ≤ 0.2
100 | TMNC | ≤ 0.2

Row | Variant | one-hybrid fitness for binding NBS DNA
101 | GGVG | ≤ 0.2
102 | WTRL | ≤ 0.2
103 | CKHC | ≤ 0.2
104 | HQNP | ≤ 0.2
105 | LVKE | ≤ 0.2
106 | IRHA | ≤ 0.2
107 | EMRF | ≤ 0.2
108 | SWHR | ≤ 0.2
109 | SNRR | ≤ 0.2
110 | IRAH | ≤ 0.2
111 | PPRV | ≤ 0.2
112 | TPFT | ≤ 0.2
113 | NQPM | ≤ 0.2
114 | WNER | ≤ 0.2
115 | HGDA | ≤ 0.2
116 | VQYC | ≤ 0.2
117 | RCIG | ≤ 0.2
118 | CPRQ | ≤ 0.2
119 | NEHG | ≤ 0.2
120 | KEVS | ≤ 0.2
121 | CQTW | ≤ 0.2
122 | RSDK | ≤ 0.2
123 | EPAT | ≤ 0.2
124 | YPAF | ≤ 0.2
125 | QTHM | 0.296

Row | Variant | one-hybrid fitness for binding NBS DNA
126 | QDNG | ≤ 0.2
127 | PQDG | ≤ 0.2
128 | QWPW | ≤ 0.2
129 | QSIM | ≤ 0.2
130 | QVGM | ≤ 0.2
131 | MYYL | ≤ 0.2
132 | NNSG | ≤ 0.2
133 | DRQQ | ≤ 0.2
134 | ATHE | ≤ 0.2
135 | MNAI | ≤ 0.2
136 | SRFP | ≤ 0.2
137 | YNSS | ≤ 0.2
138 | YRLQ | ≤ 0.2
139 | TMHG | ≤ 0.2
140 | MFYS | ≤ 0.2
141 | NDAG | ≤ 0.2
142 | ARLH | ≤ 0.2
143 | PHLR | ≤ 0.2
144 | CMLA | ≤ 0.2
145 | SGQP | ≤ 0.2
146 | DGPD | ≤ 0.2
147 | YLYF | ≤ 0.2
148 | FLCC | ≤ 0.2
149 | RRLQ | 0.209
150 | MKDG | ≤ 0.2

Row | Variant | one-hybrid fitness for binding NBS DNA
151 | VAGT | ≤ 0.2
152 | RNQL | ≤ 0.2
153 | PLYS | ≤ 0.2
154 | YRGG | ≤ 0.2
155 | HKMV | ≤ 0.2
156 | YLAV | ≤ 0.2
157 | RILR | 0.27
158 | TPRW | ≤ 0.2
159 | VKGA | ≤ 0.2
160 | VRQQ | ≤ 0.2
161 | PYNS | ≤ 0.2
162 | QNAV | ≤ 0.2
163 | TKTI | ≤ 0.2
164 | MAGG | ≤ 0.2
165 | MLCT | ≤ 0.2
166 | ACQK | ≤ 0.2
167 | RDMA | ≤ 0.2
168 | NIVG | ≤ 0.2
169 | QMHD | ≤ 0.2
170 | QAPF | 0.232
171 | PGTR | ≤ 0.2
172 | SPTR | ≤ 0.2
173 | KTYV | ≤ 0.2
174 | TMAA | ≤ 0.2
175 | TMRF | ≤ 0.2

Row | Variant | one-hybrid fitness for binding NBS DNA
176 | SSWH | ≤ 0.2
177 | RLLI | ≤ 0.2
178 | ADLT | ≤ 0.2
179 | GRYT | ≤ 0.2
180 | QDAK | ≤ 0.2
181 | PSGI | ≤ 0.2
182 | CIQL | ≤ 0.2
183 | ESSM | ≤ 0.2
184 | DSNR | ≤ 0.2
185 | SLFD | ≤ 0.2
186 | PEDN | ≤ 0.2
187 | PWSV | ≤ 0.2
188 | QVAA | ≤ 0.2
189 | TLPE | ≤ 0.2
190 | NITL | ≤ 0.2
191 | CQKC | ≤ 0.2
192 | ENFR | ≤ 0.2
193 | LLFS | ≤ 0.2
194 | SPAG | ≤ 0.2
195 | MQVS | ≤ 0.2
